The labels stand for the following.
B1: CPEB3 Ribozyme (parent)
chain: UAACAGGGGGCCACAGCAGAAGCGUUCACGUCGCAGCCCCUGUCAGAUUCUGGUGAAUCUGCGAAUUCUGCUGUAUAUCUC

The source gives no read counts; variants with many changes may rest on few reads.

This series covers variants of B1. In words: self-cleavage, relative activity (ratio to wild type); higher = more cleavage; in vitro, sequencing. In outline: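 Relative activity was defined as the cleaved/total read fraction for a variant divided by the same fraction for the unmutated ribozyme. CPEB3 self-cleaving ribozyme libraries were made by rounds of error-prone PCR, barcoded, and transcribed in vitro with T7 RNA polymerase for 5 hours at 37°C, and cleavage ran through transcription plus a 15 min DNase I step before EDTA. Illumina sequencing of template-switched reverse transcripts gave the reads, and DNA sequencing mapped the barcodes. Averages come from three batches, using variants with at least 5 reads.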
On to A13C C40U U48A U67A U74C, for which the self-cleavage is 0.05.
The figure for A13G A15G A45G is 0.18; for A13G A28G A45G it is 0.35.
Consider A13G A28G U74C, for which the self-cleavage turned out to be 0.47.
A13G A20G U54C G61C: the self-cleavage was determined as 0.23.
The value for A13G A45G A57G A65G was 0.14.
The value for A13G A20U C40A was 0.27.
On to A13G A15U U51A A64G C71G U80C, for which the self-cleavage came out at 0.13.
For the variant A13G C17U G19A U25A U54G, the self-cleavage came out at 0.13.
For the variant A13G A35G U67C U74A, the self-cleavage stood at 0.08.
In the case of A13G A35U U67C U74C, the self-cleavage is 0.08.
For A13C U31C U58C, the self-cleavage came out at 0.24.
A13G A15G A45U U78C: the self-cleavage stood at 0.43.
With A13G A15G U25C A45U U48A U80C, the self-cleavage is 0.22.
On to A13C U25C C62U U80C, for which the self-cleavage stood at 0.11.
On to A13G A18C U60C, for which the self-cleavage was 0.33.
Take A13C U49C U72G: the self-cleavage worked out at 0.17.
For the variant A13G A45C U60C C68A U69C U78C C81A, the self-cleavage was found to be 0.04.
A13G A28U U43C U49C C62U: the self-cleavage was 0.13.
With A13G A35G C71G, the self-cleavage is 0.18.
For A13G A20G U25C C59G A64U, the self-cleavage is 0.18.
The value for A13G C17U A21G was 0.35.
For A13G A18U U26C U31G A45U A75G, the self-cleavage came to 0.22.
Turning to A13C U25C A35G U67C, the self-cleavage stood at 0.16.
The figure for A13G A21U U25C A56G U72C is 0.18; for A13G C29A G70U it is 0.11; for A13G A18G U43A U54A U69C U74C it is 0.84.
The value for A13C A45U C62A was 0.1; that for A13G A21G U31A U49C A64C U80C was 0.03.
Consider A13G A47C U69A U80A, for which the self-cleavage amounted to 0.18.
Regarding A13G A28U U54C, the self-cleavage stood at 0.46.
For A13C G24U C29G U31C A64G U74C, the self-cleavage was determined as 0.05.
In the case of A13G A21G A28G A35G U78C, the self-cleavage worked out at 0.4.
On to A13G A20U A35U A56U U76C U80C, for which the self-cleavage stood at 0.05.
As to A13G A28G U43C U72C, the self-cleavage is 0.47.
Turning to A13G C14U U41C U60A, the self-cleavage was determined as 0.46.
The value for A13G A15G A47G U49C A56U was 0.24; that for A13G A20U U43C was 0.35.
The figure for A13G A20G A28G G36A is 0.18; for A13G A28U U49A it is 0.27; for A13G A20G U26C C32A U49A it is 0.26.
In the case of A13G C17A C23U U25C U69C A75G, the self-cleavage came to 0.05.
Turning to A13G C14A A15G G33A U72G, the self-cleavage amounted to 0.18.
A13C A45U A47U: the self-cleavage stood at 0.17.
Consider A13G A47G U48C U66A, for which the self-cleavage is 0.24.
For the variant A13G A45G U49C U69C, the self-cleavage worked out at 0.23.
In the case of A13C A57G U60C U80C, the self-cleavage is 0.23.
As for A13G A28U U31C, the self-cleavage amounted to 0.13.
Turning to A13G A28U A35G A56U, the self-cleavage worked out at 0.24.
The value for A13G A21G G61A U74C was 0.47; that for A13G A20G G22A U54C A65G was 0.05; that for A13G C27A C29A U74A was 0.34.
Turning to A13G A18U A21U, the self-cleavage was found to be 0.27.
As to A13G A28G U54G U58C C62U U72C, the self-cleavage is 0.08.
A13G A15G U41C C71U: the self-cleavage amounted to 0.41.
Take A13G A21G A28G U43C A45G: the self-cleavage stood at 0.28.
For the variant A13G A15U G22C A45G U69C, the self-cleavage is 0.13.
A13G A18U U31C U80C: the self-cleavage was 0.3.
With A13G A28C U51C U69C, the self-cleavage came to 0.13.
As for A13G A56U U58A U67A, the self-cleavage amounted to 0.13.
Consider A13G A15G U31A A35U U51A, for which the self-cleavage was determined as 0.41.
For A13G A45G A64U, the self-cleavage turned out to be 0.2.
The value for A13G A28G U31C was 0.43.
The value for A13C G52A A56G was 1.06.
Turning to A13G A28U A35G, the self-cleavage turned out to be 0.39.
On to A13C A35G G46A A64G, for which the self-cleavage stood at 0.67.
Regarding A13G A15G A18G A35G C39G A57U, the self-cleavage is 0.42.
Consider A13G A28U A56U, for which the self-cleavage was found to be 0.25.
For the variant A13C C14U U26C C68U, the self-cleavage turned out to be 0.19.
As for A13G A56G G73A, the self-cleavage turned out to be 0.66.
As for A13G A35G G42A C62U A64G A77G, the self-cleavage worked out at 0.08.
On to A13G A21G U25C A45G U78G, for which the self-cleavage turned out to be 0.47.
Turning to A13G A18G A47G U60C U72C, the self-cleavage turned out to be 0.
The figure for A13G A35U C44A U49C is 0.06; for A13G A18U C29A U31C A35U it is 0.08.
The value for A13C U26A A28G A45U U54C A64G was 0.09; that for A13G A28U U31C A35U A65G U67C U69A was 0.16; that for A13G A21G U54C G63A U72C U80G was 0.32.
Consider A13G A20G U31C U67C, for which the self-cleavage was 0.23.
For the variant A13G A15G U43C, the self-cleavage was 0.42.
Turning to A13G A45G U69C U78A, the self-cleavage turned out to be 0.12.
As to A13G A15G U54C, the self-cleavage turned out to be 0.39.
A13G A45G A64U U69G: the self-cleavage came to 0.13.
A13G A15G U69C U74C: the self-cleavage amounted to 0.28.

(Values after the RNAGym collection of RNA variant scans (doi:10.1093/nar/gkz1192).)
